In PMC9911399, “Two distinct binding modes provide the RNA-binding protein RbFox with extraordinary sequence specificity”:
Substitutions are numbered along the chain they refer to; changes in the protein carry UniProt numbers. The list shows a part of the results.

T1: RBFOX1 RRM (Homo sapiens, UniProt Q9NWB1 109-208)
T1 sequence: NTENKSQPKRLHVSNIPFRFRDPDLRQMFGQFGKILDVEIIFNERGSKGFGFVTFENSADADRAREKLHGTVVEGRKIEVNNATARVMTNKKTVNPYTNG

B1: ACGCUGU (DNA:RNA)
RNA: GGGAGACCGGAAUUCAGAUUGUCCACGCUGUUUAAAUCCCGUCGUAGCCACCA
DNA 1: CAATCTGAATTCCGGTCTCCC
DNA 2: TGGTGGCTACGACGGGATT
B2: UUGGGCU (DNA:RNA)
RNA: B1 RNA with A25U, C26U, C28G, U29G, G30C
DNA 1: CAATCTGAATTCCGGTCTCCC
DNA 2: TGGTGGCTACGACGGGATT
B3: CGCUGGU (DNA:RNA)
RNA: B1 RNA with A25C, C26G, G27C, C28U, U29G
DNA 1: CAATCTGAATTCCGGTCTCCC
DNA 2: TGGTGGCTACGACGGGATT
B4: CGCCGAG (DNA:RNA)
RNA: B1 RNA with A25C, C26G, G27C, U29G, G30A, U31G
DNA 1: CAATCTGAATTCCGGTCTCCC
DNA 2: TGGTGGCTACGACGGGATT
B5: CCUCGCC (DNA:RNA)
RNA: B1 RNA with A25C, G27U, U29G, G30C, U31C
DNA 1: CAATCTGAATTCCGGTCTCCC
DNA 2: TGGTGGCTACGACGGGATT
B6: ACUUGGC (DNA:RNA)
RNA: B1 RNA with G27U, C28U, U29G, U31C
DNA 1: CAATCTGAATTCCGGTCTCCC
DNA 2: TGGTGGCTACGACGGGATT
B7: UUUAUUC (DNA:RNA)
RNA: B1 RNA with A25U, C26U, G27U, C28A, G30U, U31C
DNA 1: CAATCTGAATTCCGGTCTCCC
DNA 2: TGGTGGCTACGACGGGATT
B8: UCAUCAC (DNA:RNA)
RNA: B1 RNA with A25U, G27A, C28U, U29C, G30A, U31C
DNA 1: CAATCTGAATTCCGGTCTCCC
DNA 2: TGGTGGCTACGACGGGATT
B9: GACCGGA (DNA:RNA)
RNA: B1 RNA with A25G, C26A, G27C, U29G, U31A
DNA 1: CAATCTGAATTCCGGTCTCCC
DNA 2: TGGTGGCTACGACGGGATT
B10: AAGUACU (DNA:RNA)
RNA: B1 RNA with C26A, C28U, U29A, G30C
DNA 1: CAATCTGAATTCCGGTCTCCC
DNA 2: TGGTGGCTACGACGGGATT
B11: GGUCUUA (DNA:RNA)
RNA: B1 RNA with A25G, C26G, G27U, G30U, U31A
DNA 1: CAATCTGAATTCCGGTCTCCC
DNA 2: TGGTGGCTACGACGGGATT
B12: UCGCAGA (DNA:RNA)
RNA: B1 RNA with A25U, U29A, U31A
DNA 1: CAATCTGAATTCCGGTCTCCC
DNA 2: TGGTGGCTACGACGGGATT
B13: GAUGCAA (DNA:RNA)
RNA: GGGAGACCGGAAUUCAGAUUGUCCGAUGCAAUUAAAUCCCGUCGUAGCCACCA
DNA 1: CAATCTGAATTCCGGTCTCCC
DNA 2: TGGTGGCTACGACGGGATT
B14: GAGAAGA (DNA:RNA)
RNA: B13 RNA with U27G, G28A, C29A, A30G
DNA 1: CAATCTGAATTCCGGTCTCCC
DNA 2: TGGTGGCTACGACGGGATT
B15: CCACCUG (DNA:RNA)
RNA: B1 RNA with A25C, G27A, U29C, G30U, U31G
DNA 1: CAATCTGAATTCCGGTCTCCC
DNA 2: TGGTGGCTACGACGGGATT
B16: UUUACGC (DNA:RNA)
RNA: B13 RNA with G25U, A26U, G28A, A30G, A31C
DNA 1: CAATCTGAATTCCGGTCTCCC
DNA 2: TGGTGGCTACGACGGGATT
B17: AAUUCUG (DNA:RNA)
RNA: B13 RNA with G25A, G28U, A30U, A31G
DNA 1: CAATCTGAATTCCGGTCTCCC
DNA 2: TGGTGGCTACGACGGGATT
B18: UACCGUC (DNA:RNA)
RNA: B1 RNA with A25U, C26A, G27C, U29G, G30U, U31C
DNA 1: CAATCTGAATTCCGGTCTCCC
DNA 2: TGGTGGCTACGACGGGATT
B19: ACGAGGC (DNA:RNA)
RNA: B1 RNA with C28A, U29G, U31C
DNA 1: CAATCTGAATTCCGGTCTCCC
DNA 2: TGGTGGCTACGACGGGATT
B20: GUGCCAA (DNA:RNA)
RNA: B13 RNA with A26U, U27G, G28C
DNA 1: CAATCTGAATTCCGGTCTCCC
DNA 2: TGGTGGCTACGACGGGATT

Molecular target: T1, RBFOX1 RRM
Assay: EMSA; HiTS-Eq, 1 nM pool, 10 min; buffer printed only for the single-RNA assays: 10 mM Tris pH 7.5, 150 mM NaCl, 3.4 mM EDTA, 0.001% NP-40, 30 C
Conditions: tags: His6 N-terminal (pET28a); label: 5' 32P
Method in brief: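 Purified RbFox RRM, wild type or mutant, was incubated for 10 min in 50 µL with 1 nM of a 5′-radiolabelled RNA pool carrying 7 randomized nucleotides, whose flanks were annealed to DNA oligonucleotides, over a series of increasing protein concentrations. Unbound RNA was resolved on 8% native PAGE, cut out, reverse-transcribed, barcoded by PCR and sequenced on an Illumina HiSeq 2500. Relative association constants were derived from changes in read counts for each RNA species versus the control reaction and normalised to the cognate motif.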

Row | Binder | binding signal
1 | B1 | 0.01 KA relative to UGCAUGU
2 | B2 | 0.0195 KA relative to UGCAUGU
3 | B3 | 0.0211 KA relative to UGCAUGU
4 | B4 | 0.0113 KA relative to UGCAUGU
5 | B5 | 0.00761 KA relative to UGCAUGU
6 | B6 | 0.00926 KA relative to UGCAUGU
7 | B7 | 0.00475 KA relative to UGCAUGU
8 | B8 | 0.000525 KA relative to UGCAUGU
9 | B9 | 0.0036 KA relative to UGCAUGU
10 | B10 | 0.00286 KA relative to UGCAUGU
11 | B11 | 0.00992 KA relative to UGCAUGU
12 | B12 | 0.013 KA relative to UGCAUGU
13 | B13 | 0.0183 KA relative to UGCAUGU
14 | B14 | 0.0152 KA relative to UGCAUGU
15 | B15 | 0.00285 KA relative to UGCAUGU
16 | B16 | 0.0139 KA relative to UGCAUGU
17 | B17 | 0.0115 KA relative to UGCAUGU
18 | B18 | 0.0072 KA relative to UGCAUGU
19 | B19 | 0.0107 KA relative to UGCAUGU
20 | B20 | 0.00893 KA relative to UGCAUGU
